Measured values from PubChem BioAssay (NCI).
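Assay format: 96-well plates, 48-hour exposure. GI50: concentration for 50% inhibition of growth. At the TGI there is no net growth.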

Test system: NCI-H322M lung
Test: NCI anticancer screen, dose series, 48 h

Structure (SMILES) | GI50 [µM] | TGI [µM]
O=C(COc1ccc(NC(=O)Nc2ccccc2)cc1)N=Nc1c(O)[nH]c2ccc([N+](=O)[O-])cc12 | 3.05 | 11.8
Cc1ccc(C(=O)NCCCNc2nc(Nc3ccc(N4CCN(C)CC4)cc3)nc3ccsc23)cc1 | 3.97 | 15.7
